# From article PMC3926831
# Protein sequences, listed by entry. Tags and fused reporters are not part of them. Lines headed by an entry give the natural chain unless they say otherwise; changes in a name come on top. Chains listed by the source or under a name are the forms on record and can include a tag or linker.
# Flag-β-TRCP1 (wild type) (Q9Y297, form named): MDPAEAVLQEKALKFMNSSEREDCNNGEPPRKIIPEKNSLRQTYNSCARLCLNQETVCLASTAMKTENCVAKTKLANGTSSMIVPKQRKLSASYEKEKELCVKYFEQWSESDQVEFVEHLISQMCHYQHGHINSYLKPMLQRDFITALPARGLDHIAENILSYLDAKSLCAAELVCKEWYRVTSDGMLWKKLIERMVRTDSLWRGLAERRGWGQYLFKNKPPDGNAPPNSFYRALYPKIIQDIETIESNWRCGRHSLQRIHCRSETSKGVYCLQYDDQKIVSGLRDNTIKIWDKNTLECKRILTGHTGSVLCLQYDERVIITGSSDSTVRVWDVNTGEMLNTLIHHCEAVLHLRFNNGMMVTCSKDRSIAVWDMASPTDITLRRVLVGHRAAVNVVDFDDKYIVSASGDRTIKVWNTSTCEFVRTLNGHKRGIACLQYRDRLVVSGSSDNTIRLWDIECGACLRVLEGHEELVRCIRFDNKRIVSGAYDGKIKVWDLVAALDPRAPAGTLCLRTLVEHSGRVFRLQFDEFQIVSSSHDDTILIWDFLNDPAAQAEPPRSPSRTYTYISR
# Flag-β-TRCP1-R474A (Q9Y297, form named): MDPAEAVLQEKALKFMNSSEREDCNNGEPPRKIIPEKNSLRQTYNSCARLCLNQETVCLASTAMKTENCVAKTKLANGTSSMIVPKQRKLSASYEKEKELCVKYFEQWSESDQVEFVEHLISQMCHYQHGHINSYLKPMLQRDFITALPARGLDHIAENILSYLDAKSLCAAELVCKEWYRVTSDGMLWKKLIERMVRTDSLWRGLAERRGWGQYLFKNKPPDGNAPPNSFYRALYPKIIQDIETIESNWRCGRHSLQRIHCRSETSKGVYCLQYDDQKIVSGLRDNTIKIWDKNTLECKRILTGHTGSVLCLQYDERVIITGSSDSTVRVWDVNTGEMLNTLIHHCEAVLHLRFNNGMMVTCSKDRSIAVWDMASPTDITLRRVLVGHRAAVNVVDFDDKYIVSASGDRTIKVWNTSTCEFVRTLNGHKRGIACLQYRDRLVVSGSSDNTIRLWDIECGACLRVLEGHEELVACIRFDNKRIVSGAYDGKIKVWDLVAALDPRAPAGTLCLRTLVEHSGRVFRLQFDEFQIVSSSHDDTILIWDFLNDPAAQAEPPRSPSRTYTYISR
# UniProt Q13616: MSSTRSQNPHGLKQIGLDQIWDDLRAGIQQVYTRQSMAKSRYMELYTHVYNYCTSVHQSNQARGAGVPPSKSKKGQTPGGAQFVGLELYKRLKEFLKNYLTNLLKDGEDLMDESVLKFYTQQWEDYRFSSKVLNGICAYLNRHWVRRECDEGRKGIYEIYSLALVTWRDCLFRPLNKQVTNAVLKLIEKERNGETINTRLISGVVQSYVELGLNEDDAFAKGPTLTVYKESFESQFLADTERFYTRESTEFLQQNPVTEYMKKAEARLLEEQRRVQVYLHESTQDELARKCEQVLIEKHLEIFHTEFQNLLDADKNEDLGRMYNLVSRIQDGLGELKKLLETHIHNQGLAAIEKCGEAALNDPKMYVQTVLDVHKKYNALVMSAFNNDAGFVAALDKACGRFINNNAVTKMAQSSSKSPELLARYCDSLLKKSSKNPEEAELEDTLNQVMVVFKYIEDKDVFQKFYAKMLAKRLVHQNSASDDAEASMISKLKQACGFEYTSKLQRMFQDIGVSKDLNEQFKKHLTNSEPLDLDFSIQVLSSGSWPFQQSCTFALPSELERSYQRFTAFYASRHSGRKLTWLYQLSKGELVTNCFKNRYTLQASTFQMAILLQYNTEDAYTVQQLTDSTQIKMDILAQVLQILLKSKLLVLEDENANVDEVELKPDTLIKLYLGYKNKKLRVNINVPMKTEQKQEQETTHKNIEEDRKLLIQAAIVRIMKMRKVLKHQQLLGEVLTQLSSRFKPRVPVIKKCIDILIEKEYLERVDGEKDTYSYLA
# UniProt Q13617: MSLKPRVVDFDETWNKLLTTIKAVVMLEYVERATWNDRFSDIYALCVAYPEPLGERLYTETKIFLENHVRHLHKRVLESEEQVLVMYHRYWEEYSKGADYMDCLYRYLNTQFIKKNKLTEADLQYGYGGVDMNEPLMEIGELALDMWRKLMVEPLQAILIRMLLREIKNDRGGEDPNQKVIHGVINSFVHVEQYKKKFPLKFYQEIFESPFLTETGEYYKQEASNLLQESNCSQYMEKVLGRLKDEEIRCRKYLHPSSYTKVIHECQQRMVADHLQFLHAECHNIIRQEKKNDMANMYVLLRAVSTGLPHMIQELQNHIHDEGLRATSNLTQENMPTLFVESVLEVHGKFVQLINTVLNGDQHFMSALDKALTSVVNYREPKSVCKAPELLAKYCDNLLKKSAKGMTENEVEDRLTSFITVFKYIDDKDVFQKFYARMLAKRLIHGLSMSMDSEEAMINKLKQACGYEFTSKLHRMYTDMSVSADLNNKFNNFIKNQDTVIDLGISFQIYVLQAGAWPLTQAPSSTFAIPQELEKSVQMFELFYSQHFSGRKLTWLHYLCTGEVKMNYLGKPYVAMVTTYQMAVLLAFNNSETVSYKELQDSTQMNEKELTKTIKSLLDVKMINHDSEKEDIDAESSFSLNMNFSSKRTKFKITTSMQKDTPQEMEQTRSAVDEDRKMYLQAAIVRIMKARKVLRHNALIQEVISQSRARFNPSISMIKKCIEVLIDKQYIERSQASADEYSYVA
# UniProt Q13619: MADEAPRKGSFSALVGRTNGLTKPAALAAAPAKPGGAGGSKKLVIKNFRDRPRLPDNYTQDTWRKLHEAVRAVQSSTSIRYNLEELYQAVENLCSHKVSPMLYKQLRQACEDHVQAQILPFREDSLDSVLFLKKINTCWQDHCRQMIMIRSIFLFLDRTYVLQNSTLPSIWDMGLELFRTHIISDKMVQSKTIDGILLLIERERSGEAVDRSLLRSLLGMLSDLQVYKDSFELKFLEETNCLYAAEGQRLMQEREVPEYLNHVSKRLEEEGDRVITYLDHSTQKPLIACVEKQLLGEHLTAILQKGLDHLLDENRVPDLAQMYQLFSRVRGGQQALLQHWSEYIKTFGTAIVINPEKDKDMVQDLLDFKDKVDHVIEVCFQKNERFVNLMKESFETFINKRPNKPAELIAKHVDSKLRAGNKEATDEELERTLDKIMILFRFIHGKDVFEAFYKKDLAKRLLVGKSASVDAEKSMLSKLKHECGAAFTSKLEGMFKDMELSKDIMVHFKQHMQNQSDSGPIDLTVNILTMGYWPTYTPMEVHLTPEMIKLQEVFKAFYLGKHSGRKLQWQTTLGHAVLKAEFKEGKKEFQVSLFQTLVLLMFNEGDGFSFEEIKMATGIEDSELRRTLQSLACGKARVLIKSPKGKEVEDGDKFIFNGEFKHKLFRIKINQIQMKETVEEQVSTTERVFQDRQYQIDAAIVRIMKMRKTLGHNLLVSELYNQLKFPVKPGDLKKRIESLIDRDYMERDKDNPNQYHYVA
# UniProt Q93034: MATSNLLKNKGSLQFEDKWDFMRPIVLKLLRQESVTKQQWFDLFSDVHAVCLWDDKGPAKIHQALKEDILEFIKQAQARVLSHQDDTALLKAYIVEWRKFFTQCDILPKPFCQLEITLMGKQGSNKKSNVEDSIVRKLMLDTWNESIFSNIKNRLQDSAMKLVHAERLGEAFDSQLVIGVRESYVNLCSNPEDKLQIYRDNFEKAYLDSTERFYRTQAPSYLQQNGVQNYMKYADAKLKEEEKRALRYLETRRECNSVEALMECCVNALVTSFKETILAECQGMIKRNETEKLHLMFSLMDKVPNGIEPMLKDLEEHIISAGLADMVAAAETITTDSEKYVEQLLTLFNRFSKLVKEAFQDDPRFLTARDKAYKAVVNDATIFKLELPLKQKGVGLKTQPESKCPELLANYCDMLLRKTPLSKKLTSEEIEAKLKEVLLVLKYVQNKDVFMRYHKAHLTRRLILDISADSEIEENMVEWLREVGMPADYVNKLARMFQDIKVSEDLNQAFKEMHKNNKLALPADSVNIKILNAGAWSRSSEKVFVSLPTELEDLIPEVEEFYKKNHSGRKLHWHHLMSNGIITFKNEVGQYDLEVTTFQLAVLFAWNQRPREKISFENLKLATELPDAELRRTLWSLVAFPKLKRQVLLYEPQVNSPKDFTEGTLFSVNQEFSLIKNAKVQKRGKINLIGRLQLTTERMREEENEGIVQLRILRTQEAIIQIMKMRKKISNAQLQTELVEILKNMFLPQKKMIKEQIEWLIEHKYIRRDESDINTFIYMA
# Numbering of substitutions follows the chain as printed. Numbers in names are those of the source. These are yes or no findings as the source states them, for the method shown. In cells and extracts the contact can be indirect. Some binding calls cover weakened binding; strength is not graded here. For some assays here: Where a sequence is shown, tags or fusion partners need not be part of it.
# B1: Metastasis suppressor 1 (MTSS1), endogenous (protein, UniProt O43312 1-755)
# chain: MEAVIEKECSALGGLFQTIISDMKGSYPVWEDFINKAGKLQSQLRTTVVAAAAFLDAFQKVADMATNTRGGTREIGSALTRMCMRHRSIEAKLRQFSSALIDCLINPLQEQMEEWKKVANQLDKDHAKEYKKARQEIKKKSSDTLKLQKKAKKGRGDIQPQLDSALQDVNDKYLLLEETEKQAVRKALIEERGRFCTFISMLRPVIEEEISMLGEITHLQTISEDLKSLTMDPHKLPSSSEQVILDLKGSDYSWSYQTPPSSPSTTMSRKSSVCSSLNSVNSSDSRSSGSHSHSPSSHYRYRSSNLAQQAPVRLSSVSSHDSGFISQDAFQSKSPSPMPPEAPNQLSNGFSHYSLSSESHVGPTGAGLFPHCLPASRLLPRVTSVHLPDYAHYYTIGPGMFPSSQIPSWKDWAKPGPYDQPLVNTLQRRKEKREPDPNGGGPTTASGPPAAAEEAQRPRSMTVSAATRPGEEMEACEELALALSRGLQLDTQRSSRDSLQCSSGYSTQTTTPCCSEDTIPSQVSDYDYFSVSGDQEADQQEFDKSSTIPRNSDISQSYRRMFQAKRPASTAGLPTTLGPAMVTPGVATIRRTPSTKPSVRRGTIGAGPIPIKTPVIPVKTPTVPDLPGVLPAPPDGPEERGEHSPESPSVGEGPQGVTSMPSSMWSGQASVNPPLPGPKPSIPEEHRQAIPESEAEDQEREPPSATVSPGQIPESDPADLSPRDTPQGEDMLNAIRRGVKLKKTTTNDRSAPRFS
# B2: ectopically expressed MTSS1 (Supplementary Figure S1A) (protein, UniProt O43312 1-755)
# chain: B1 chain
# B3: Myc-MTSS1 (wild type) (protein, UniProt O43312 1-755)
# chain: B1 chain
# B4: Myc-S322A-MTSS1 (protein, UniProt O43312 1-755)
# chain: B1 chain with S322A
# Assays:
# Flag-β-TRCP1 (wild type) [1] = target: Flag-β-TRCP1 (wild type) (UniProt Q9Y297); assay: co-IP; 293T cells transfected with a tagged construct (Myc-Cullins or Flag-β-TRCP1 WT/R474A) or empty vector; endogenous MTSS1 blotted; 10 μM MG132 overnight before harvest; EBC lysis buffer (50 mM Tris pH 8.0, 120 mM NaCl, 0.5% NP-40); antibody overnight at 4 °C; five washes with NETN buffer
# Flag-β-TRCP1-R474A = Flag-β-TRCP1-R474A (UniProt Q9Y297); assay: as above
# Myc-Cullin 1 [2] = target: Myc-Cullin 1 (UniProt Q13616); assay: as above
# Myc-Cullin 2 = Myc-Cullin 2 (UniProt Q13617); assay: as above
# Myc-Cullin 3 = Myc-Cullin 3 (UniProt Q13618); assay: as above
# Myc-Cullin 4A = Myc-Cullin 4A (UniProt Q13619); assay: as above
# Myc-Cullin 5 = Myc-Cullin 5 (UniProt Q93034); assay: as above
# Myc-Cullin 1 [3] = target: Myc-Cullin 1 (UniProt Q13616); assay: co-IP; Cullin constructs with ectopically expressed MTSS1 (Supplementary Figure S1A); cells and tags not shown
# Flag-β-TRCP1 (wild type) [4] = target: Flag-β-TRCP1 (wild type) (UniProt Q9Y297); assay: co-IP; HeLa cells co-transfected with Flag-β-TRCP1 and Myc-MTSS1 (WT or S322A); also in HeLa lines infected with shGFP, shCKIδ-A or shCKIδ-B; 10 μM MG132 overnight before harvest; EBC lysis buffer; five washes with NETN buffer
# Flag-β-TRCP1 (wild type) [5] = target: Flag-β-TRCP1 (wild type) (UniProt Q9Y297); assay: co-IP; 293T cells co-transfected with both tagged partners; 10 μM MG132 overnight before harvest; EBC lysis buffer; five washes with NETN buffer; for Myc-MTSS1 with Flag-β-TRCP1 lysates were also pre-treated with λ-phosphatase before the IP
binder,measurement,setting,value
B1,binding,Flag-β-TRCP1 (wild type) [1],binds
same,binding,Flag-β-TRCP1-R474A,no binding
same,binding,Myc-Cullin 1 [2],binds
same,binding,Myc-Cullin 2,no binding
same,binding,Myc-Cullin 3,no binding
same,binding,Myc-Cullin 4A,no binding
same,binding,Myc-Cullin 5,no binding
B2,binding,Myc-Cullin 1 [3],binds
B3,binding,Flag-β-TRCP1 (wild type) [4],binds
same,binding,Flag-β-TRCP1 (wild type) [5],binds
B4,binding,Flag-β-TRCP1 (wild type) [4],no binding
